# Data as given in the supplement of paper PMC3334620.
# In all, about 33,000 sequences were measured (“E-score (-0.5 to 0.5)”: median about -0.017, highest 2% from about 0.3 on). The list shows a part of the results.
# Biological target: T1, Sut1 (UniProt P53032)
# T1 sequence: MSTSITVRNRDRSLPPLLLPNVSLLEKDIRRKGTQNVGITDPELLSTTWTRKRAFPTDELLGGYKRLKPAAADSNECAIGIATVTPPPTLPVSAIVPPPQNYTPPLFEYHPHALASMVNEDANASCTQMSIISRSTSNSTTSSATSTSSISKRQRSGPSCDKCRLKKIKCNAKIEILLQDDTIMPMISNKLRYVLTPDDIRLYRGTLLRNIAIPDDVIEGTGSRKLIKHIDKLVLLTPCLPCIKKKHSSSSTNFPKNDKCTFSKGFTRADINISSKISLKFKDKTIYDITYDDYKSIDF
# Assay: PBM E-score (8-mer binding enrichment) (E-score (-0.5 to 0.5)); higher = stronger / more preferred TF binding; most listed sequences are background and not binding sites
# Conditions: protein concentration: 200 nM; construct: GST-full length
# Summary of the method: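 Yeast transcription factors, full-length or as DNA-binding domains, were expressed with a GST tag using PURExpress in vitro transcription/translation. At about 100-200 nM they were applied to universal all-10-mer Agilent arrays, double-stranded by primer extension on fresh or once-stripped slides. Fluorescent anti-GST detected bound protein, and masliner normalised the scans. E-scores for ungapped eight-base words, pooled with reverse complements, came from the Universal PBM Analysis Suite.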
row,Sequence,PBM E-score
1,ATGTCTCA,0.0455
2,CCCGTATA,-0.0438
3,AGTTACTC,0.142
4,ACTGTGTA,0.0481
5,ATATTTTG,0.22
6,ACGCTATA,-0.103
7,TCCTACGA,-0.185
8,TTCCCGAA,0.162
9,AGTGGGGA,-0.158
10,AAGCTCTC,-0.127
11,GAGTCACA,-0.108
12,ACATGGAA,0.0799
13,ACACCGGT,0.0191
14,CCACAACA,-0.131
15,CGACCAGC,-0.199
16,ACATTATC,0.102
17,CTAGGCAG,-0.0628
18,AATTCCTA,0.138
19,GGGAGGCA,-0.305
20,ATCCTCTC,-0.121
21,GTCGCAAA,0.131
22,CGTACCCC,0.023

row,Sequence,PBM E-score
1,AGGCTGTA,-0.0333
2,ACAAAGAT,0.159
3,ACCGGGAT,-0.00686
4,AGTCATAC,0.00053
5,ACCCTACG,-0.102
6,CGTTCCGA,0.0366
7,GCACATCC,-0.219
8,CGCTCCTC,-0.184
9,ACTGCCAT,-0.0998
10,TAACCAGA,-0.0534
11,ACAATATA,0.29
12,CTCCAGTA,-0.0808
13,CTATGCAA,-0.0556
14,ATGTACAA,0.0935
15,ACGGTACC,0.0939
16,GAACGGCA,0.0523
17,CAGCACGA,-0.162
18,CACGTAAC,-0.16
19,GCCGCTAC,-0.131
20,AGTATGTG,0.247
21,AAGCTGTG,-0.179
22,ATGAGCTA,0.0367

row,Sequence,PBM E-score
1,GGGATTTA,0.187
2,GTTAAATA,0.249
3,ACCATCAT,0.143
4,ATCAGCTC,-0.0823
5,ATGTAGTA,0.177
6,GCACTGAA,0.00589
7,TAAGTCTA,-0.116
8,CTAACCCA,-0.102
9,TGTTGAAA,0.107
10,CTTTAGGA,-0.00397
11,CGGCCCCC,-0.367
12,TGTGAGAA,0.127
13,ACGGGATC,0.0187
14,GAGAGTCA,-0.119
15,TCCACCCA,-0.205
16,AGTCCCAA,-0.154
17,AATTGTGA,0.169
18,GGTTAACC,-0.148
19,AAGCGTCA,-0.0469
20,GGCCGCCC,-0.227
21,AACCTTTG,0.0541
22,AACATTCC,0.0359

row,Sequence,PBM E-score
1,CGATTCCA,0.0585
2,AGGTTACC,0.168
3,CGAGGTTC,0.0362
4,ATGAAACC,0.0449
5,AATCCTAC,-0.0158
6,ATTCGGCA,0.0323
7,AGTCCAGC,-0.137
8,CATCAAGC,-0.00808
9,AGTCTTAA,-0.0471
10,CCATAACA,0.0447
11,GTTGAGTA,0.133
12,ACCGCTCG,-0.0322
13,CTAGCTAA,-0.082
14,ATTGGGTC,0.04
15,ATTTCTAA,0.0131
16,AGCGCGAC,-0.0635
17,CCCAGAAC,-0.0765
18,CCGCGAGA,-0.257
19,CGAGTCAC,-0.156
20,TCGTATCA,0.0667
